According to PubChem BioAssay AID1508642 (National Center for Advancing Translational Sciences (NCATS), 2021):
About 200 (0.47%) of roughly 43,000 compounds were called active. Another 12% or so got no clear call; they are omitted. Calls follow the shape of the dose curve; as a rule, active = well fitted cell-killing curve with a large enough effect; inconclusive = small, poorly fitted or top-dose-only effect, or effect the other way; inactive = flat fitted curve, though single readings scatter. Some of the results follow.

experiment: Cell viability qHTS assay in S16 Pmp22-F2sN cells; conditions: S16 Pmp22-F2sN Schwann cells (luciferase reporters placed in the Pmp22 gene) viability, CellTiter-Glo, 24 h; series mostly up to 57.5 µM; activity change, negative = cytotoxicity: at the top concentration; also: nearly all actives have a fitted effect of over 65% in size
Procedure, shortened: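 Seed 500-1,000 S16 Pmp22-F2sN cells per well in phenol-red-free DMEM with 10% heat-inactivated FBS; pin-add 23 nL compound; incubate 24 h at 37C; add CellTiter-Glo, wait 15 min protected from light; read luminescence.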
% is scaled to controls: 0 for no effect and ±100 for the full control effect.

Compound | activity change, negative = cytotoxicity
COc1ccc(CNCCSc2nnnn2-c2ccccc2)c(OC)c1 | inactive: -6.19%
Cn1c(=O)c2sccc2n2c(CCC(=O)N3CCN(c4cccc(Cl)c4)CC3)nnc12 | inactive: 14.3%
O=C(C1CC1)N1CCc2cc(Br)cc(S(=O)(=O)N3CCN(c4ccccc4)CC3)c21 | inactive: 22.4%
CCOc1ccc(/C=C(\C#N)C(=O)Nc2sc3c(c2C(=O)OC)C(C(=O)OC)CC3)cc1OC (configuration not stated) | inactive: 1.28%
Cc1c(CNCCc2ccc(S(N)(=O)=O)cc2)c(C(=O)O)c(C)n1Cc1ccc(Cl)cc1 | inactive: -4.34%
CCCCC(=O)Nc1nnc(S(=O)(=O)N(CC)c2cc(C)cc(C)c2)s1 | inactive: 19.3%
CCCCOC(=O)c1ccc(Nc2nc3ccccc3c3nnc(C)n23)cc1 | inactive: 10.2%
COc1ccc(S(=O)(=O)NCc2ccc3c(c2)CCN3C(=O)c2ccc(C)cc2)cc1Cl | inactive: -26.5%
COc1ccc(CCn2c(=O)c3cccnc3n(CC(=O)Nc3cccc(C)c3)c2=O)cc1OC | inactive: 0.364%
CCOC(=O)C1CCN(C(=O)Cn2nc(C)n3c(cc4cc(C)ccc43)c2=O)CC1 | inactive: -0.969%
Cc1cc2nc(-c3ccc(Br)cc3)cc(C(F)(F)F)n2n1 | inactive: 0.845%
Cc1cc(C)cc(-n2ccnc2SCC(=O)Nc2ccc3c(c2)OCO3)c1 | inactive: 2.36%
Cn1cc(-c2cc3n(n2)CCC(=O)N3CCCC(=O)Nc2ccc(F)cc2F)c2ccccc21 | inactive: 2.74%
Cc1ccc2nc(NS(=O)(=O)c3ccc(Cl)cc3)c(Nc3ccc(C(=O)O)cc3)nc2c1 | inactive: 1.3%
Cc1nnc2c(N3CCN(c4ccccc4)CC3)nc3ccc(C(=O)c4ccccc4)cc3n12 | inactive: 0.967%
Cc1nc2c(C(=O)NCCc3ccc(Cl)cc3)c[nH]n2c(=O)c1Cc1ccccc1F | inactive: 17.7%
CCc1ccc(Sc2cc(C(=O)NCCCOC(C)C)c3ccccc3n2)cc1 | inactive: -4.49%
Cc1cc(C)cc(OCC(=O)Nc2ccc(Cl)c(-c3nc4ncccc4o3)c2)c1 | inactive: 7.4%
CC(=O)Nc1ccc(-n2c(CCC(=O)O)ccc2-c2ccc(C)cc2)cc1 | inactive: 5.12%
CCOC(=O)c1oc2ccc(S(=O)(=O)n3nc(-c4cc(OC)cc(OC)c4)cc3N)cc2c1C | inactive: -19.8%
N#C/C(=C\c1ccccc1)C(=O)Nc1sc2c(c1C(N)=O)CCC2 | inactive: 5.06%
Cn1cnc(S(=O)(=O)N2CCC(C(=O)N3CCN(c4ccc(Cl)cc4)CC3)CC2)c1 | inactive: 3.8%
CCc1ccccc1NC(=O)C1COc2ccccc2C1 (configuration not stated) | inactive: -27.6%
COc1cccc(C2C(C(=O)Nc3ccccc3)=C(C)Nc3nnnn32)c1OC (configuration not stated) | inactive: 2.22%

Compound | activity change, negative = cytotoxicity
Cc1ccc(NC(=O)CSc2nc3c(oc4ccccc43)c(=O)n2Cc2ccco2)cc1 | inactive: 1.67%
CCCn1c(=O)c2sccc2n2c(CCCC(=O)N3CCN(c4cccc(C)c4C)CC3)nnc12 | inactive: 1.09%
Cc1c(C(=O)N(Cc2ccc(Cl)cc2)CC2CCCO2)oc2ccc(F)cc12 (configuration not stated) | inactive: -4.07%
COc1ccccc1CNC(=O)CSc1ncc2c(n1)-c1cc(Cl)ccc1N(Cc1ccccc1)S2(=O)=O | inactive: -0.764%
CCOc1ccc(-c2nc(SCC(=O)NCCCOC)c(-c3ccccc3)[nH]2)cc1 | inactive: -3.01%
CCn1c(CN2CCOCC2)nc2cc(NC(=O)c3ccc([N+](=O)[O-])cc3)ccc21 | inactive: 1.07%
CCc1ccc(NC(=O)C2=CC(c3ccc4c(c3)OCO4)=NS(=O)(=O)N2C)cc1 | inactive: 1.41%
Cc1cccc(-n2c(C)nc3cc(C(=O)NC4CCCCCC4)ccc32)c1 | inactive: -5.66%
O=C(Cc1ccccc1F)N1CCC(c2nc3c(nnn3Cc3ccc(F)cc3)c(=O)[nH]2)CC1 | inactive: 19.9%
O=C(CS(=O)(=O)c1cccc2nsnc12)Nc1cc(F)ccc1F | inactive: 10.1%
CSc1ccc(CC2C(=O)Nc3ccccc32)cc1 (configuration not stated) | inactive: -6.88%
CCOC(=O)C1CCN(c2c(C(=O)c3ccc(C)cc3)cnc3ccc(F)cc23)CC1 | inactive: 15.1%
O=c1c2cc3c(nc2ncn1Cc1ccc(Cl)cc1)CCCC3 | inactive: -6.31%
COc1ccc(NC(=O)CN2C(=O)c3ccccc3Sc3ccc(C(=O)N4CCOCC4)cc32)c(OC)c1 | inactive: 0.823%
CC1CCC2(CC1)N=C(c1ccccc1)C(=O)N2CC(=O)Nc1ccc(F)c(Cl)c1 (configuration not stated) | inactive: -27.4%
CCOC(=O)c1cccc(NS(=O)(=O)c2cc3[nH]c(=O)c(=O)[nH]c3cc2C)c1 | inactive: 4.42%
Cc1nc2ncnn2c(C)c1CCC(=O)N1CCN(c2cccc(Cl)c2)CC1 | inactive: 7.84%
CCc1ccc(NC(=O)c2nnn(Cc3cccc(C(F)(F)F)c3)c2N)cc1 | inactive: 5.88%
COc1cccc(CNC(=O)c2ccc3c(c2)nc2n3CCCCC2)c1OC | inactive: 3.43%
COc1cccc(CNC(=O)COCc2cc(-c3ccc4c(c3)OCO4)on2)c1 | inactive: -21%
COc1cc(C(=O)OCc2cc(=O)n3nc(C(C)C)sc3n2)cc(OC)c1OC | inactive: -4.05%
COc1cc(NC(=O)c2cccc(F)c2)ccc1NC(=O)c1cc2ccccc2o1 | inactive: -0.393%
CCOc1ccccc1NC(=O)CN1CCCN(Cc2cccc(Cl)c2)S1(=O)=O | inactive: -11.3%
